Tested on: AVM-NKT cells
Conditions: mouse, in vivo

For methylprednisone, the “Induction of AVM-NKT cells in blood” value was “not induced”.

— patent US20230096897A1, “Lymphocyte Population and Methods for Producing Same” (AVM Biotechnology, LLC, priority 2020, published 2023)
